# Reference: PubChem BioAssay AID1347073 (National Center for Advancing Translational Sciences (NCATS), 2019)
# About 200 (0.44%) of roughly 45,000 compounds were called active. About 7% were inconclusive and are not listed. Calls follow the shape of the dose curve; as a rule, active = well fitted activation curve with a large enough effect; inconclusive = small, poorly fitted or top-dose-only effect; inactive = no such curve, though single readings can be large or run the other way. The list shows a part of the results.
# Experiment: qHTS of TDP-43 Inhibitors: NCGC Sytravon Library Screen; also: 0% is about no effect; nearly all actives have a fitted effect of over 55% in size
# Conditions: yeast TDP-43 toxicity rescue, BacTiter-Glo growth, 24 h; series mostly up to 46.1 µM; growth rescue (activation): at the top concentration
# How it was run: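 TDP-43-expressing yeast, pregrown in raffinose, seeded at OD600 0.02 in galactose medium with compound for 24 hr at 30 deg C. Growth read by BacTiter-Glo luminescence, so rescue of toxicity appears as activation.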
row,SMILES,growth rescue (activation)
1,CC1(C)Cc2ccccc2C(=C(C#N)C#N)N1,inactive: 11.9%
2,c1ccc(CNc2nc(NCC3CC3)nc3cc(-c4ccccc4)sc23)cc1,inactive: 19.5%
3,Cc1cc(Br)ccc1SCC(=O)OCC(=O)NCc1ccco1,inactive: 20.7%
4,CCOC(=O)c1ccc(N2Cc3ccccc3C2=NC(=O)c2cccs2)cc1,inactive: 13.2%
5,COc1cc(C(=O)NCCSc2ccccc2)cc(OC)c1OC,inactive: 5.81%
6,Cc1c(C(=O)N2CCN(c3ccccc3)CC2)sc2ncnc(N3CCN(c4ccccn4)CC3)c12,inactive: 12.6%
7,Cc1cc(C(=O)OCC(=O)NC(=O)NC(C)(C)C)c(C)o1,inactive: -8.73%
8,CCOc1ncccc1C(=O)OCC(=O)Nc1ccc(C)c(S(=O)(=O)N2CCOCC2)c1,inactive: 11.8%
9,CC(C)c1nnc(NC(=O)COc2ccccc2[N+](=O)[O-])s1,inactive: 15.2%
10,CCOc1ncccc1C(=O)OCC(=O)Nc1ccc(-c2nc3ccc(C)cc3s2)cc1,inactive: -29.3%
11,Cc1nc(NC(=O)CSc2nnc(-c3ccncc3)n2C)sc1C,inactive: -25.1%
12,COc1ccc(OC)c(C(=O)COC(=O)COc2ccccc2)c1,inactive: -14.1%
13,Cc1ccc(CNC(=O)c2ccccc2-n2cnnn2)cc1,inactive: 14.7%
14,CC(OC(=O)/C(C#N)=C/c1ccco1)C(=O)N(C)c1ccccc1 (stereo unspecified),inactive: 11.7%
15,O=C(CSc1nc2[nH]c(=O)cc(O)c2s1)NCCc1ccccc1,inactive: 17.8%
16,O=C(O)C1CCC(CN(Cc2cccc(Br)c2)C(=S)Nc2ccccc2F)CC1 (stereo unspecified),inactive: 20.9%
17,Cc1ccc(-c2nnc(/C=C/c3ccccc3)o2)cc1,inactive: 22.9%
18,CC1CCN(C(=S)c2cn(Cc3cccc(F)c3)c3ccccc23)CC1,inactive: 7.83%
19,O=C1CN(S(=O)(=O)c2cc(Cl)ccc2Cl)c2ccccc2N1,inactive: -3.57%
20,O=C(Nc1nnc([C@@H]2C[C@H](O)[C@@H](CO)O2)s1)Nc1cccc2ccccc12,inactive: -0.302%
21,CC(C)CC(N)c1csc(NC(=O)NCCc2ccccc2)n1 (stereo unspecified),inactive: 7.78%
22,COc1cccc(Nc2nc(CN3CCOCC3)nc3sc4c(c23)CCCC4)c1,inactive: -1.53%
23,CC(=O)Nc1ccc(S(=O)(=O)NCC2CCC(C(=O)NC(C)c3ccccc3)CC2)cc1 (stereo unspecified),inactive: 15.6%
24,CN(Cc1ccc(F)cc1)C(=O)COc1ccc2ccccc2c1,inactive: 7.08%

row,SMILES,growth rescue (activation)
1,Cc1ccc(/C=N/NC(=O)CSc2ccccn2)o1,inactive: 14.5%
2,COc1cccc(C(=O)CC(C(=O)O)c2ccc(F)cc2)c1 (stereo unspecified),inactive: -4.99%
3,CCCCC(=O)Nc1cccc(-c2csc(-c3ccccc3)n2)c1,inactive: 3.38%
4,Cc1cc(C(=O)Nc2ccc(F)c(Cl)c2)on1,inactive: 13.5%
5,CNC(=S)N/N=C/c1cc(C)ccc1C,inactive: 14.2%
6,CC/C(=C\C(=O)c1cccnc1)Nc1ccc(C)c(C)c1,inactive: -8.19%
7,Cc1c(C(=O)N/N=C/C(C)C)[nH]c2c([N+](=O)[O-])cccc12,inactive: 7.34%
8,COc1ccc(-c2noc(C(C)NC(=O)c3ccco3)n2)cc1OC (stereo unspecified),inactive: 0.895%
9,COC(=O)c1ccc(NC(=S)NN2CCCCC2c2cccnc2)cc1 (stereo unspecified),inactive: -2.12%
10,CCOc1ccc(C(=O)Nc2ccc(Cc3ccncc3)cc2)cc1Br,inactive: 7.2%
11,C/C(=N\NC(=O)c1c(C)nc2ccccn12)c1ccc(C(C)(C)C)cc1,inactive: 2.09%
12,c1ccc(-c2nc(-n3nc4ccccc4n3)nc3ccccc23)cc1,inactive: 27.5%
13,CCOC(=O)c1ccc(NC(=O)c2nc(S(=O)(=O)Cc3ccccc3)ncc2Cl)cc1,inactive: -5.55%
14,Cc1ccccc1-n1c(SCC(=O)O)nc2sc3c(c2c1=O)CCCC3,inactive: -9.29%
15,CN(C)c1ccc(/C=N/Nc2nncc3ccccc23)cc1,inactive: 6.4%
16,Cc1nn(CCCC(=O)NCc2ccccc2)c(=O)c2c1sc1ccccc12,inactive: 12.4%
17,N#C/C(=N/Nc1ccccc1[N+](=O)[O-])C(N)=S,inactive: -5.05%
18,O=C1NN(c2ccc(Cl)c(Cl)c2)C(=O)/C1=C/c1ccc(-c2ccccc2C(=O)O)o1,inactive: 7.77%
19,CCOC(=O)c1sc(NC(=O)COC(=O)CNC(=O)C2CCCCC2)c(C(=O)OCC)c1C,inactive: 10.5%
20,O=C(CN1C(=O)COc2ccccc21)NC1CCCC1,inactive: -8.21%
21,CCCN1CCN(C(=O)CCNC(=O)Cn2cnc3ccccc3c2=O)CC1,inactive: -7.18%
22,C[C@@H](C(=O)NNC(=O)c1ccc(Cl)cc1)N1C(=O)C2CC=CCC2C1=O (stereo partly specified),inactive: -19.1%
23,COc1ccc(/C(=N\O)c2nccc3cc(OC)c(OC)cc23)cc1OC,inactive: 2.18%
24,COc1ccc(C(=O)CN2C3=NCCCN3c3ccccc32)cc1OC,inactive: -13.8%

row,SMILES,growth rescue (activation)
1,O=C(Nc1ccc(N2CCOCC2)cc1N1CCOCC1)c1ccc(F)cc1,inactive: 28%
2,O=C(Nc1cc(N2CCOCC2)ncn1)c1ccccc1,inactive: 16.4%
3,O=C(Nc1ccc(OCC(=O)N2CCOCC2)cc1)c1ccccc1F,inactive: 10.5%
4,CC(=O)Nc1nc(C)c(C(C)C)s1,inactive: 8.78%
5,COc1ccc(S(=O)(=O)N2CCN3CCCC3C2)cc1 (stereo unspecified),inactive: -14.1%
6,CCC(=O)NNc1ccc(Br)cc1,inactive: -2.47%
7,CC(=O)C1=C(C)NC(SCC(N)=O)=C(C#N)C1CC(C)C (stereo unspecified),inactive: -4.19%
8,CS(=O)(=O)n1nc(-c2ccco2)nc1N,inactive: 7.08%
9,O=C(CN1CCN(Cc2ccc3c(c2)OCO3)CC1)Nc1ccc2[nH]c(=O)[nH]c2c1,inactive: 2.66%
10,CC1CCCCC1NC(=O)c1cc(S(=O)(=O)N2CCOCC2)ccc1Cl (stereo unspecified),inactive: 8.46%
11,COc1ccccc1NC(=O)N1CC=C(c2c[nH]c3ccccc23)CC1,inactive: 10%
12,Nc1nc(N)nc(COc2ccccc2)n1,inactive: -3.07%
13,COc1ccc2c(c1)c(C(=O)N/N=C/c1ccccc1Cl)c(C)n2C,inactive: 0.154%
14,CCOc1ccc2[nH]c3c(=O)n(CCc4ccc(OC)cc4)cnc3c2c1,inactive: 7.37%
15,COc1ccc(OC)c(C2C=C(C34CC5CC(CC(C5)C3)C4)NC(=S)N2)c1 (stereo unspecified),inactive: 11.8%
16,O=C(O)COc1ccccc1/C=N/NC(=O)CSc1nc2ccccc2n1Cc1ccccc1Cl,inactive: 13.1%
17,COC(=O)CSC1=C(C#N)C(c2ccc(C)o2)CC(=O)N1 (stereo unspecified),inactive: -17%
18,COc1ccc(CNC(=O)[C@H](Cc2c[nH]c3ccccc23)NC(C)=O)cc1OC,inactive: 6.34%
19,CN1CCN(C(=S)Nc2cccc(C(F)(F)F)c2)CC1,inactive: 18.5%
20,COc1ccc(CN2CCN(C(=O)C3CCN(S(=O)(=O)c4cccs4)CC3)CC2)c(OC)c1OC,inactive: 15.2%
21,C=CCN(C(=O)CNC(=O)c1cccs1)C(C(=O)NC1CCCCC1)c1cccnc1 (stereo unspecified),inactive: 11.3%
22,Cc1ccc(NC(=O)c2cccs2)cc1S(=O)(=O)Nc1cccc(Cl)c1,inactive: 18.1%
23,O=C(N/N=C/c1ccccc1O)c1ccc2c(c1)OCO2,inactive: 3.65%
